Assay results reported in PubChem BioAssay AID1030 (National Center for Advancing Translational Sciences (NCATS), 2008).
Among all 220,000 compounds or so, about 16,000 (7.3%) were called active. Inconclusive results, whose numbers are uncertain, are shown with a selection of clear calls. Calls follow the shape of the dose curve; as a rule, active = well fitted inhibition curve with a large enough effect (not every such curve was filed as active); inconclusive = small, poorly fitted or top-dose-only effect, or another doubt; inactive = no such curve, though single readings can be large or run the other way. No potency is given beside an inconclusive call; the fits are too rough.

The compounds below were run against Aldehyde dehydrogenase 1A1 (Homo sapiens) (UniProt P00352) (assay: qHTS Assay for Inhibitors of Aldehyde Dehydrogenase 1 (ALDH1A1)). Details: Purified ALDH1A1, NADH fluorescence, propionaldehyde substrate; series mostly up to 75.3 µM; activity, negative = inhibition: at the top concentration.
Chain of UniProt P00352 (P00352 whole entry, looked up): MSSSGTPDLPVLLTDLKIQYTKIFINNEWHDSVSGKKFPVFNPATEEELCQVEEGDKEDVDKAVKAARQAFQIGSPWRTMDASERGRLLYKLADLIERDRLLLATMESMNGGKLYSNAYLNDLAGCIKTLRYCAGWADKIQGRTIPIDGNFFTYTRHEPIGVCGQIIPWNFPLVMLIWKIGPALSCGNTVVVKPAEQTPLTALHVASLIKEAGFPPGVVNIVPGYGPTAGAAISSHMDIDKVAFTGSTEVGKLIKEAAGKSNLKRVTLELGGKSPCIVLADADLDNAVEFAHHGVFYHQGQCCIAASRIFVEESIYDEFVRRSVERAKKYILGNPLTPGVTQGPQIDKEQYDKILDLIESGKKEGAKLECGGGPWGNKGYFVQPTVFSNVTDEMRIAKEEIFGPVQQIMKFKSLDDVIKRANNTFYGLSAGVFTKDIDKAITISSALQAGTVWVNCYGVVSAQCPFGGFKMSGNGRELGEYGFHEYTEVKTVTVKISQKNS

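For activity, negative = inhibition in this document: plate controls were no enzyme wells and a reference inhibitor.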
Potency is read from the fitted curve at half-maximal effect; tags tell the direction and shape of the fitted curve.

SMILES | Potency | activity, negative = inhibition
COc1cc(C)c(C(C)C)cc1S(=O)(=O)n1cnc(C)c1 | inconclusive [inhibitor, single point] | 
N#CC1=C(N)N(c2ccc(F)cc2)C(=O)C1 | active: 22.4 µM | 
O=C(/C=C/c1ccc(S(=O)(=O)N2CCOCC2)cc1)NC(=S)Nc1ccc(N2CCOCC2)cc1 | inconclusive [inhibitor, single point] | 
c1cncc(-c2noc(-c3cccc4ccccc34)n2)c1 | inconclusive [inhibitor, partial curve] | 
COC(=O)c1ccc(C(=O)OC)c(NC(=O)CSCc2ccc(Br)cc2)c1 | inconclusive [inhibitor, single point] | 
O=C(CNC(=O)c1ccco1)OCC(=O)c1cccc2ccccc12 | active: 22.4 µM | 
Cc1cc(C)nc(NC2=NCC(=O)N2c2ccc(Cl)cc2)n1 | inconclusive [inhibitor, single point] | 
CC1=C(C(=O)N2CCOCC2)C(c2ccccc2F)C2=C(CCCC2=O)N1 (centres undefined) | inconclusive [inhibitor, partial curve] | 
CC(Nc1n[nH]c(=S)[nH]c1=O)C(=O)OCc1ccccc1 (centres undefined) | inconclusive [inhibitor, single point] | 
Cc1ccc(-c2nc(SCC(N)=O)c(C#N)c3c2CCCC3)cc1 | inconclusive [inhibitor, partial curve] | 
CCOC(=O)C1=C(C)NC2=C(C(=O)C(C(=O)OCC)C(c3cccc(OC)c3)C2)C1c1ccccn1 (centres undefined) | inconclusive [inhibitor, partial curve] | 
Cc1occc1C(=O)NNC(=O)c1ccccc1F |  | inactive: 8.5%
Cc1ccc(-c2nc(N)s[n+]2-c2ccccc2)cc1 | active: 7.08 µM | 
Cc1ccc(NC(=O)CSc2nc3ccccc3c(=O)n2CCCC(=O)NCCCN2CCOCC2)cc1 |  | inactive: -4.4%
CSCCC(C(=O)N1CC2(C)CC1CC(C)(C)C2)N1C(=O)c2ccccc2C1=O (centres undefined) | inconclusive [inhibitor, single point] | 
O=C1c2ccccc2NC(c2cn[nH]c2-c2ccccc2)N1O (centres undefined) |  | inactive: 2.29%
COC(=O)[C@@H]1CCCN1C(=O)[C@H]1C[C@@H]1[C@H](NC(=O)OCc1ccccc1)c1ccccc1 | inconclusive [inhibitor, single point] | 
CCOC(=O)c1cnc(-n2nc(C)cc2C)nc1Nc1ccc(OC)cc1 |  | inactive: -10.1%
Cc1cc(C)nc(NC(=O)CSc2ccccn2)n1 | active: 10 µM | 
COc1cccc(C(=O)CSc2nnc(CNc3nc(-c4ccccc4)cs3)n2C)c1 | inconclusive [inhibitor, single point] | 
COc1ccc(N2CCN(C(=O)c3ccccc3)CC2)c([N+](=O)[O-])c1 | inconclusive [inhibitor, single point] | 
Cc1cccc(N2C(=O)c3cccnc3C2=O)c1 |  | inactive: 2.24%
Cc1nn(C)c(C(=O)NNC(=S)NCc2ccco2)c1Br | inconclusive [inhibitor, single point] | 
CCOC(=O)c1cc(-c2ccc(C)cc2)n(CCC(=O)NCCCOC)c1C |  | inactive: 4.46%
O=C1CC(c2ccc(Cl)c([N+](=O)[O-])c2)c2ccc3ccccc3c2N1 (centres undefined) | inconclusive [inhibitor, partial curve] | 

SMILES | Potency | activity, negative = inhibition
COc1ccc(OCCN2C(=O)NC(C)(c3ccc(C)cc3)C2=O)cc1 (centres undefined) | inconclusive [inhibitor, partial curve] | 
COc1ccc(C2C(C(=O)c3cccs3)=C(O)C(=O)N2c2nncs2)cc1 (centres undefined) |  | inactive: 0.0339%
N#CC1=C(N)C2=C(N3CCCCC3)CCCC2C1(C#N)C#N (centres undefined) | inconclusive [inhibitor, single point] | 
Cc1ccnc(SCC(=O)O)n1 |  | inactive: 6.84%
CC(=O)NC(Cc1cccc(C)c1)C(=O)NC1CCN(C(=O)c2ccc([N+](=O)[O-])cc2)CC1 (centres undefined) |  | inactive: 9.73%
Cc1nnc(C)c2c(C)n(-c3ccc(Br)cc3)c(C)c12 |  | inactive: 4.23%
Cc1cccc(C(=O)NC(=S)NNC(=O)Cc2ccccc2)c1 | inconclusive [inhibitor, single point] | 
Cc1noc(C)c1C(=O)Nc1nc(C23CC4CC(CC(C4)C2)C3)cs1 | inconclusive [inhibitor, single point] | 
O=C1c2cccc3c(O)ccc(c23)C(=O)N1Cc1ccco1 | active: 12.6 µM | 
COc1ccc(/C=N/NC2=NCCCCC2)cc1 | inconclusive [inhibitor, single point] | 
COc1ccc(CCNC(=O)C(=O)NCc2ccccc2)cc1OC | inconclusive [inhibitor, single point] | 
CCOC(=O)C(C)n1nc(/C=C/c2ccccc2)ccc1=O (centres undefined) | inconclusive [inhibitor, single point] | 
O=C(OCn1cncn1)c1ccc(Cl)cc1Cl |  | inactive: -6.59%
CC(C)N1CCN(Cc2ccc(-c3ccccc3Cl)o2)CC1CCO (centres undefined) | inconclusive [inhibitor, single point] | 
O=C(NNS(=O)(=O)c1ccc(F)cc1F)C1Cc2c(ccc3ccccc23)O1 (centres undefined) |  | inactive: 2.47%
C=CCN1C(=O)C(CC(=O)Nc2ccccc2)SC1=Nc1ccc(S(N)(=O)=O)cc1 (centres undefined) | inconclusive [inhibitor, partial curve] | 
COc1ccc(CCN2C(=O)CC(N3CCN(c4ccccn4)CC3)C2=O)cc1OC (centres undefined) | active: 25.1 µM | 
COc1ccc(CCNC2CC(=O)N(CCc3ccc(OC)c(OC)c3)C2=O)cc1OC (centres undefined) | active: 6.31 µM | 
COC(=O)c1ccc(CSc2n[nH]c(C)n2)o1 |  | inactive: 7.33%
COc1ccc(CN=Cc2[nH]c3ccc(Br)c(Cl)c3c2O)cc1 | active: 3.98 µM | 
Cc1ccc(C(=O)NCc2ccc(Cl)c(Cl)c2)o1 |  | inactive: 1.65%
Cc1ccc(S(=O)(=O)N2CCC(=O)N(C(COCc3ccc(Cl)c(Cl)c3)Cc3ccccc3)CC2)cc1 (centres undefined) | inconclusive [inhibitor, partial curve] | 
CSCCC(NC(=O)c1ccc(C(C)(C)C)cc1)C(=O)O (centres undefined) |  | inactive: 2.03%
CC(C)OC(=O)c1nnn(-c2nonc2N)c1CN1CCCCCC1 | inconclusive [inhibitor, partial curve] | 
